The text below walks through data of US5364879A, “Medical uses of trioxolane and diperoxide compounds” (Cliveden Ltd., priority 1994, dated 1994).

This test relates to yeast infections of the vagina. The note with it: suppository every 24 hours; third group.

SMILES strings stand for the structures.

`Clc1ccccc1C(c1ccccc1)(c1ccccc1)n1ccnc1` [clotrimazole]: the yeast assay entry is given as “negative”.
